The values that follow come from the BET-seq Pho4 binding data (Le et al. 2018).

Some of the results follow. Values were computed here from the reads of four pooled replicates and scatter widely.

The assay has as its target T1, Pho4 (S. cerevisiae) (UniProt P07270).
T1 sequence: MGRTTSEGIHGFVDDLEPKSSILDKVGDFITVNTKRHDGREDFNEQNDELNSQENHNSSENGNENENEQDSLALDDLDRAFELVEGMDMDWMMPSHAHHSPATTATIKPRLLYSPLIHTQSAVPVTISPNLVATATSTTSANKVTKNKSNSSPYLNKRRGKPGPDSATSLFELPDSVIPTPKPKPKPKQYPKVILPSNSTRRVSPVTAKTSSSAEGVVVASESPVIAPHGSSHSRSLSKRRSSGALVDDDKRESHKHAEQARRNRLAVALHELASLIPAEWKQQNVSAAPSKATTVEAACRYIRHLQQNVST
Description: relative binding free energy (BET-seq); higher = weaker binding. To be noted: reference: library average.
Consider GACGGCACGTGTGGGC, for which the “relative binding free energy” value worked out at 0.09 kcal/mol.

In the case of TGAGCCACGTGCGGTA, the “relative binding free energy” value was -0.08 kcal/mol. AGGGCCACGTGGCGGT: the “relative binding free energy” value is -0.15 kcal/mol. GATTTCACGTGGGGTT: the “relative binding free energy” value turned out to be 0.34 kcal/mol. As for TTAGGCACGTGTGTTA, the “relative binding free energy” value was -0.05 kcal/mol. GAATTCACGTGTATGA: the “relative binding free energy” value amounted to 0.33 kcal/mol.

For CGTTGCACGTGGGCGC, the “relative binding free energy” value is -0.13 kcal/mol. Regarding TGCATCACGTGTTGTT, the “relative binding free energy” value was found to be 0.2 kcal/mol. In the case of GGTTACACGTGCGTGT, the “relative binding free energy” value amounted to 0.13 kcal/mol. Turning to TGATGCACGTGCTTGG, the “relative binding free energy” value is -0.03 kcal/mol. The value for TCGTACACGTGTCTGG was 0.12 kcal/mol; that for TCGGGCACGTGGGTGT was -0.2 kcal/mol; that for TTTTCCACGTGCGTGG was -0.05 kcal/mol. AGCGTCACGTGAAGTA: the “relative binding free energy” value was found to be 0.31 kcal/mol. On to TGGTGCACGTGCATGC, for which the “relative binding free energy” value is 0 kcal/mol.

On to CGGGTCACGTGCTGGC, for which the “relative binding free energy” value was determined as 0.09 kcal/mol. Take CGTGACACGTGTTGAG: the “relative binding free energy” value was -0.12 kcal/mol. As to GGCGTCACGTGCGTGC, the “relative binding free energy” value was 0.1 kcal/mol. Take ATTCGCACGTGATGGG: the “relative binding free energy” value amounted to 0.08 kcal/mol. Turning to GATGGCACGTGCAGGG, the “relative binding free energy” value is -0.14 kcal/mol. GAGGTCACGTGTAGCG: the “relative binding free energy” value turned out to be 0.25 kcal/mol.

GGTATCACGTGATTCG: the “relative binding free energy” value is 0.18 kcal/mol.

For TCGTTCACGTGGGGAT, the “relative binding free energy” value amounted to 0.26 kcal/mol. For the sequence TGTTCCACGTGTGGGG, the “relative binding free energy” value came out at 0.08 kcal/mol. As to GAAGGCACGTGAGGGT, the “relative binding free energy” value was 0.23 kcal/mol. As for ATTCGCACGTGTTTCT, the “relative binding free energy” value was 0.06 kcal/mol. On to TCCTGCACGTGTGGGG, for which the “relative binding free energy” value turned out to be 0.05 kcal/mol.

Turning to GAGTACACGTGCGTTT, the “relative binding free energy” value stood at 0.17 kcal/mol. Consider CTTGTCACGTGGCTTG, for which the “relative binding free energy” value stood at 0.06 kcal/mol. With GGTCTCACGTGATGGC, the “relative binding free energy” value was found to be 0.39 kcal/mol. GGCGACACGTGGAGTT: the “relative binding free energy” value was 0.18 kcal/mol.

For GTTCACACGTGGAAGG, the “relative binding free energy” value is 0.22 kcal/mol.

Regarding AAAGTCACGTGTCTAT, the “relative binding free energy” value worked out at 0.21 kcal/mol.

As for ATGAGCACGTGGGAGT, the “relative binding free energy” value is -0.2 kcal/mol. For TATAGCACGTGCTGGC, the “relative binding free energy” value was -0.03 kcal/mol. Take TGGTACACGTGTAGCG: the “relative binding free energy” value was 0.18 kcal/mol. GGTTGCACGTGGCTTG: the “relative binding free energy” value is 0.02 kcal/mol. Consider ATTTTCACGTGTATCT, for which the “relative binding free energy” value was determined as 0.14 kcal/mol. TGTTTCACGTGCTGGC: the “relative binding free energy” value came to 0.13 kcal/mol. In the case of TAATTCACGTGTTTAC it was 0.42 kcal/mol; in that of TAGGTCACGTGGCTAT, -0.1 kcal/mol; in that of GGTCGCACGTGGGGCT, -0.15 kcal/mol. As to GATTTCACGTGGTTTG, the “relative binding free energy” value came out at 0.34 kcal/mol. As for GTAGGCACGTGTTAAG, the “relative binding free energy” value was -0.1 kcal/mol. For the sequence TTCCGCACGTGGCGGG, the “relative binding free energy” value was -0.14 kcal/mol. Take TTGGTCACGTGTACTT: the “relative binding free energy” value was 0.16 kcal/mol.

Consider TGTAGCACGTGATGAA, for which the “relative binding free energy” value came to 0.09 kcal/mol.

With TCTAACACGTGTGGGG, the “relative binding free energy” value worked out at 0.1 kcal/mol. Turning to TCTGGCACGTGGCGTG, the “relative binding free energy” value is -0.21 kcal/mol. As for GATGTCACGTGATACT, the “relative binding free energy” value is 0.46 kcal/mol. For the sequence AATGGCACGTGAGTTG, the “relative binding free energy” value is 0.16 kcal/mol. With CTGGGCACGTGTGGAA, the “relative binding free energy” value is -0.18 kcal/mol. Consider ACGAGCACGTGGGGAT, for which the “relative binding free energy” value is -0.04 kcal/mol. AATGACACGTGTGTTA: the “relative binding free energy” value worked out at 0.03 kcal/mol. As for AAAGGCACGTGTGTGA, the “relative binding free energy” value is -0.23 kcal/mol.

As to TGCGTCACGTGTTGCG, the “relative binding free energy” value is -0.1 kcal/mol. On to ACTGGCACGTGGTGAT, for which the “relative binding free energy” value is -0.06 kcal/mol. Regarding AGGAACACGTGTATGG, the “relative binding free energy” value is 0.05 kcal/mol.

Turning to ACATTCACGTGGTTTG, the “relative binding free energy” value was determined as 0.22 kcal/mol. For the sequence ATTTGCACGTGGGCTG, the “relative binding free energy” value is -0.29 kcal/mol. Turning to CAGAGCACGTGGGGTG, the “relative binding free energy” value was -0.25 kcal/mol. The value for AATTCCACGTGGTTGT was -0.02 kcal/mol; that for CAGGTCACGTGAGGTC was 0.39 kcal/mol.

For the sequence GGGTGCACGTGTTGGT, the “relative binding free energy” value turned out to be 0.06 kcal/mol. As to TGGGCCACGTGTGGAA, the “relative binding free energy” value was -0.05 kcal/mol. Take AGACGCACGTGTGTGA: the “relative binding free energy” value worked out at 0.05 kcal/mol.

On to AAGTTCACGTGGTCGG, for which the “relative binding free energy” value was determined as 0.23 kcal/mol. The value for TGGGTCACGTGGTAGC was 0.11 kcal/mol; that for TGGGTCACGTGATAGT was 0.12 kcal/mol; that for GGCATCACGTGTAGTT was 0.2 kcal/mol.

Regarding TAGATCACGTGAAGAT, the “relative binding free energy” value was determined as 0.4 kcal/mol. Turning to GATTTCACGTGTTAGG, the “relative binding free energy” value stood at 0.39 kcal/mol.

Take GGTGCCACGTGATTGA: the “relative binding free energy” value is 0.14 kcal/mol.

Consider TCTTTCACGTGTGGGC, for which the “relative binding free energy” value is 0.23 kcal/mol. Take TGTAACACGTGAGGTA: the “relative binding free energy” value came to 0.19 kcal/mol. For the sequence CGCTTCACGTGCGGGT, the “relative binding free energy” value came to 0.15 kcal/mol. As to GTGTTCACGTGATTGA, the “relative binding free energy” value was 0.49 kcal/mol. Consider ATTTACACGTGGAGGT, for which the “relative binding free energy” value came out at 0.01 kcal/mol. On to GGAAGCACGTGCTTTG, for which the “relative binding free energy” value is -0.02 kcal/mol. GGTAACACGTGGGAGG: the “relative binding free energy” value is 0 kcal/mol.

GTTTTCACGTGTATAG: the “relative binding free energy” value came out at 0.35 kcal/mol. For the sequence GTCCTCACGTGGGGTA, the “relative binding free energy” value amounted to 0.2 kcal/mol. The value for ATATTCACGTGTGAAG was 0.24 kcal/mol; that for TGTGGCACGTGGTCGG was -0.21 kcal/mol. The value for GGATGCACGTGATTGT was 0.09 kcal/mol; that for AGCATCACGTGGGGGT was -0.01 kcal/mol; that for GCGGGCACGTGGGTAG was -0.29 kcal/mol. With TATTTCACGTGAAAGG, the “relative binding free energy” value came out at 0.33 kcal/mol. Regarding ATAGGCACGTGACTAG, the “relative binding free energy” value is 0.02 kcal/mol.

Regarding TAGTACACGTGTGAAT, the “relative binding free energy” value came out at 0.16 kcal/mol. Regarding TGGTTCACGTGGAGAG, the “relative binding free energy” value was determined as 0.27 kcal/mol. As for AAGAGCACGTGTTAGT, the “relative binding free energy” value was -0.25 kcal/mol. ATTGTCACGTGATCGG: the “relative binding free energy” value worked out at 0.02 kcal/mol. In the case of TTCTGCACGTGAAGAG it was 0.4 kcal/mol.

For the sequence GGGTTCACGTGTATCG, the “relative binding free energy” value was 0.21 kcal/mol.

ATATGCACGTGGATGT: the “relative binding free energy” value stood at 0.01 kcal/mol. As to ATGTGCACGTGAGGAG, the “relative binding free energy” value was 0.02 kcal/mol. In the case of TGGGGCACGTGCTATC it was -0.01 kcal/mol. With TATAACACGTGGGTTA, the “relative binding free energy” value was -0.22 kcal/mol.

As for ACTGGCACGTGTGTTT, the “relative binding free energy” value was -0.08 kcal/mol. On to GTGGCCACGTGGTTTG, for which the “relative binding free energy” value was -0.17 kcal/mol. For the sequence TGGTTCACGTGCAATG, the “relative binding free energy” value came to 0.32 kcal/mol. Consider ATGGACACGTGATTGG, for which the “relative binding free energy” value stood at 0.05 kcal/mol. Turning to TTGTTCACGTGGGCGC, the “relative binding free energy” value worked out at 0.17 kcal/mol. As for AAGAGCACGTGTCTGG, the “relative binding free energy” value is -0.14 kcal/mol. Consider AGGATCACGTGCGGGT, for which the “relative binding free energy” value was 0.12 kcal/mol. The value for GGGGTCACGTGGGTGT was 0.11 kcal/mol; that for GTTCGCACGTGGTACG was -0.09 kcal/mol.

Consider AAGCGCACGTGTGTGT, for which the “relative binding free energy” value was -0.05 kcal/mol.

As to AGGTTCACGTGAGATG, the “relative binding free energy” value was 0.57 kcal/mol.

As to AAGGTCACGTGTTAAT, the “relative binding free energy” value amounted to 0.23 kcal/mol.

For GTAATCACGTGGGTGT, the “relative binding free energy” value amounted to 0.06 kcal/mol.

For CTTGGCACGTGAGTTC, the “relative binding free energy” value came out at 0.15 kcal/mol. On to TTCATCACGTGTAGTT, for which the “relative binding free energy” value was 0.22 kcal/mol.

Take GTTCTCACGTGGGAGA: the “relative binding free energy” value was found to be 0.24 kcal/mol.
